This is an account of results in article PMC4336329 (PLoS ONE, 2015).

Structures are written as SMILES. In all, about 310,000 compounds went through this assay and about 2,200 (0.71%) showed an effect of 50% or more. Effects have a minus sign here. This is one part of the list.

The target of the assay is human ether-à-go-go-related gene (hERG) potassium channel (human, UniProt Q12809). The experiment in a line: primary screen, population patch clamp on CHO cells stably expressing hERG.
human ether-à-go-go-related gene (hERG) potassium channel, sequence (Q12809 whole entry, looked up): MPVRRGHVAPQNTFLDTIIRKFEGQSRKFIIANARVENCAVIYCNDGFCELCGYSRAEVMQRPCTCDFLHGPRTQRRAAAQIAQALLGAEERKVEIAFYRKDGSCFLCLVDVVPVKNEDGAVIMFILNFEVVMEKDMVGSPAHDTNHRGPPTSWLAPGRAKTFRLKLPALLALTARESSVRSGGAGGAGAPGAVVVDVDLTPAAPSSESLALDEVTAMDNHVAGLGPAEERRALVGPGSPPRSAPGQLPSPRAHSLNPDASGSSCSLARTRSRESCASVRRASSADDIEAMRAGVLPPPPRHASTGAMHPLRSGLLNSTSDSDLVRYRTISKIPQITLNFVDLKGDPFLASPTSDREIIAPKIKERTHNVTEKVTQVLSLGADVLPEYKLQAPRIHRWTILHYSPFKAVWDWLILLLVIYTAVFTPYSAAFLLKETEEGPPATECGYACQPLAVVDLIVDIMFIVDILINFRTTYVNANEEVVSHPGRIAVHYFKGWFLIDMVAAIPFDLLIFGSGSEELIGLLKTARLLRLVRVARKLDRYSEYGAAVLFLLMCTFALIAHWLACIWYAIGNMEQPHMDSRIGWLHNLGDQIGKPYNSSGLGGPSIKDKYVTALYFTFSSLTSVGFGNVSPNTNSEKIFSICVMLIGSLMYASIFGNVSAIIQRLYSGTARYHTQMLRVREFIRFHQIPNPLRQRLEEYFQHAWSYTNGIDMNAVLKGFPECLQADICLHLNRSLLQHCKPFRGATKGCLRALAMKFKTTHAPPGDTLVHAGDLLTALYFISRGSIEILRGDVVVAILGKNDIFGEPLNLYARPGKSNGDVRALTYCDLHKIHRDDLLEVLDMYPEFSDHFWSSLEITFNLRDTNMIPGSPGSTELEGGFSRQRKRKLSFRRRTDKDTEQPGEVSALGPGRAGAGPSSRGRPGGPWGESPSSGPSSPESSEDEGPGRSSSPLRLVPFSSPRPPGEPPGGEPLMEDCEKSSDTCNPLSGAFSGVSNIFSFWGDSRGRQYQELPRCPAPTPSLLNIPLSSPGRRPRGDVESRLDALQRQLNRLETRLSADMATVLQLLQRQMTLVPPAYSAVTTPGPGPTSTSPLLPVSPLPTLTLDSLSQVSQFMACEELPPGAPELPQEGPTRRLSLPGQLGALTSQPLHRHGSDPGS
As for `Cc1nn(Cc2ccc(C(=O)Nc3ccccc3F)cc2)c(C)c1Cl`, the “hERG current change (%, negative = inhibition) at 1uM” value was found to be 4.93%.
As for `COc1ccc(S(=O)(=O)N2CCCCC2)cc1NC(=O)CCCNC(=O)c1ccc(Cl)cc1`, the figure is 3.95%.
Consider `CCNC(=S)N/N=C/c1cccs1`, for which the “hERG current change (%, negative = inhibition) at 1uM” value is reported as -0.224%.
As for `O=C1CC(c2ccccc2)n2nc(NC(=O)c3cccs3)nc2N1` (centres unmarked), the “hERG current change (%, negative = inhibition) at 1uM” value turned out to be 6.55%.
In the case of `Cc1[nH]c2ccccc2c1C(=O)COC(=O)c1nccnc1N`, the “hERG current change (%, negative = inhibition) at 1uM” value is given as 3.32%.
The value for `COC(=O)c1ccc(Cl)c(NC(=O)CN2CCC(C)CC2)c1` was 4.29%; that for `Cc1cc(C=C2C(=O)N(C)C(=S)N(C)C2=O)c(C)n1C1CCCC1` was 15.3%.
Regarding `C=CCn1c(SCC(=O)NC2CC2)nc2ccccc2c1=O`, the “hERG current change (%, negative = inhibition) at 1uM” value stood at 8.88%.
As for `COc1ccc(-c2c(=O)n(OCc3nc4ccccc4[nH]3)c3ccccc3[n+]2[O-])cc1`, the figure is 11.8%; as for `Cc1ccc(NC(=O)COC(=O)c2cc(-c3cccs3)nn2-c2ccccc2)cc1[N+](=O)[O-]`, 5.16%; as for `CCOc1ccc(NC(=O)c2ccc3c(c2)CCN3S(C)(=O)=O)cc1`, 4.9%.
`COc1ccc(-c2nnc(SCC(=O)N/N=C/c3ccccc3C(=O)O)n2-c2ccc(Cl)cc2)cc1`: the “hERG current change (%, negative = inhibition) at 1uM” value came to 5.3%.
As for `CCOC(=O)c1c(NC(=S)NCCc2ccccc2)sc2c1CC(C(C)C)OC2` (centres unmarked), the figure is 13.2%; as for `O=C(Nc1ccccc1C(F)(F)F)N1CCCC(O)C1` (centres unmarked), 14.3%.
The value for `CCN(CC)S(=O)(=O)c1cc(NC(=O)C(C)N2CCc3ccccc32)ccc1C` (centres unmarked) was 9.99%; that for `Cc1[nH]nc(N=CC2=C(O)CC(c3ccco3)CC2=O)c1-c1ccc(Cl)cc1` (centres unmarked) was -4.69%; that for `CC(NC(=O)Cn1cnnn1)C12CC3CC(CC(C3)C1)C2` (centres unmarked) was 1.62%.
For the molecule `COC(=O)CNC(=O)COC(=O)Cc1ccc(Cl)cc1`, the “hERG current change (%, negative = inhibition) at 1uM” value was 9.85%.
As for `COc1cccc(CC2(CO)CCCN(CC3=Cc4cc(OC)ccc4OC3)C2)c1` (centres unmarked), the figure is 10.7%; as for `CN(C)CC1CCCCC1OC(=O)c1ccc(Br)cc1.Cl` (centres unmarked), 4.55%; as for `O=c1cc(COc2ccccc2[N+](=O)[O-])nc2sccn12`, 1.54%.
Take `COC(=O)c1ccc2c(CCO)c[nH]c2c1`: the “hERG current change (%, negative = inhibition) at 1uM” value worked out at 7.07%.
The value for `COc1ccc(-c2ccc3oc(-c4ccc(OC)cc4)c(-c4ccc(OC)cc4)c3c2)cc1` was 21.7%; that for `Cc1ccc(Cn2nc(C)c(NC(=O)c3nn(C)cc3Cl)c2C)cc1` was 11%; that for `O=C(O)CNS(=O)(=O)c1ccc(C2CCCCC2)cc1` was 3.45%.
As for `CC(C)C(NC(=O)c1ccc(C(C)(C)C)cc1)C(=O)O` (centres unmarked), the figure is -1.71%; as for `Cc1c(C(=O)Nc2ccccc2)oc2c1C(=O)CC(C)(C)C2`, 3.05%; as for `COc1ccc(N(C(=O)c2ccco2)C(C(=O)NC2CCCC2)c2cc(OC)c(OC)c(OC)c2)cc1` (centres unmarked), 13.1%.
The value for `CC(C)(O)C#Cc1ccc(C(=O)Nc2ccc3c(c2)OCO3)s1` was 19.2%; that for `O=C1NN(c2ccc(Cl)c(Cl)c2)C(=O)/C1=C/c1cccc(OC(=O)c2cccs2)c1` was 18.8%; that for `C/C(=C\c1ccccc1)CN1CCN(C(C)C)C(CCO)C1` (centres unmarked) was 2.77%.
Regarding `O=[N+]([O-])c1cc(Br)cc(/C=N/n2cnnc2)c1O`, the “hERG current change (%, negative = inhibition) at 1uM” value is 14.3%.
`COc1cc(/C=N/NC(=O)CC2(C)OCCCO2)ccc1OCc1ccc(Cl)cc1Cl`: the “hERG current change (%, negative = inhibition) at 1uM” value is 8.41%.
As to `CN(Cc1ccccc1)C(=O)CCNS(=O)(=O)c1ccc2c(c1)oc(=O)n2C`, the “hERG current change (%, negative = inhibition) at 1uM” value is -0.783%.
The value for `CCN(CC)CCCOC(=O)C1(c2ccccc2)CCCC1` was -4.91%; that for `C=CCN1C(=O)c2ccc(C(=O)OCC(=O)Nc3ccccc3OC)cc2C1=O` was 6.4%; that for `COC(=O)c1c(NC(=O)C(=O)NCC2CCCO2)sc2c1CC(C)(C)OC2` (centres unmarked) was 49.5%.
As for `O=C(Cc1cccs1)NNC(=S)NC(=O)c1ccccc1`, the figure is 12.9%.
Regarding `O=C(/C=C/c1ccc(Br)cc1)NC(=S)N1CCOCC1`, the “hERG current change (%, negative = inhibition) at 1uM” value worked out at 12.8%.
Take `CC(OC(=O)CNC(=O)c1ccc2c(c1)OCO2)C(=O)NCCC1=CCCCC1` (centres unmarked): the “hERG current change (%, negative = inhibition) at 1uM” value is reported as 2.22%.
The value for `COc1ccc(N(CC(=O)O)S(=O)(=O)c2ccc(OC)c(OC)c2)cc1` was 2.5%; that for `CCNC(=S)NNC(=O)c1cc(-c2cccc(OCC)c2)nc2ccccc12` was -5.51%; that for `CCn1cc(C2=NOC(C(=O)O)C2)c(C)n1` (centres unmarked) was -6.47%.
Regarding `CC(C)(C)c1ccc(S(=O)(=O)NNC(=O)c2cc3ccccc3[nH]2)cc1`, the “hERG current change (%, negative = inhibition) at 1uM” value is 11.4%.
The value for `Cc1ccc(C(=O)N2CCN(C(=O)c3ccccc3)C2c2ccc(N(C)C)cc2)cc1` (centres unmarked) was 4.38%.
In the case of `CC1(C(=O)NCCc2c[nH]c3ccccc23)C=CCN1C(=O)c1ccccc1` (centres unmarked), the “hERG current change (%, negative = inhibition) at 1uM” value is listed as 3.34%.
Take `COc1ccccc1C1N=C(c2ccccc2C)NO1` (centres unmarked): the “hERG current change (%, negative = inhibition) at 1uM” value worked out at 14.4%.
The value for `CC(=O)Nc1ccc(S(=O)(=O)NC(C)c2ccncc2)cc1` (centres unmarked) was 3.61%; that for `COc1ccc(OCC(O)CN2CC(C)OC(C)C2)cc1.Cl` (centres unmarked) was 14.5%; that for `CN(C)C(=O)c1ccccc1NC(=O)Cc1cccc2ccccc12` was 18.3%.
With `Cc1onc(-c2c(F)cccc2Cl)c1C(=O)N1CCN(c2ncccn2)CC1`, the “hERG current change (%, negative = inhibition) at 1uM” value was -6.59%.
With `Cc1cccc(C)c1NC(=O)COC(=O)c1ccccc1O`, the “hERG current change (%, negative = inhibition) at 1uM” value is 9.37%.
Turning to `COc1ccc(N2CCN(C(=O)CCC(=O)NNc3nc4ccccc4c4nc(C)nn34)CC2)cc1`, the “hERG current change (%, negative = inhibition) at 1uM” value is reported as 1.69%.
Consider `C/C(=N\Nc1ccc(C(=O)O)cc1)c1ccc(-n2ccnc2)cc1.O=S(=O)(O)O`, for which the “hERG current change (%, negative = inhibition) at 1uM” value is recorded as 5.91%.
For `COc1ccc(OC)c(/C=C/C(=O)NC2=NCCS2)c1`, the “hERG current change (%, negative = inhibition) at 1uM” value came to 7.05%.
The value for `O=C(O)c1nnn(-c2cc(C(F)(F)F)cc(C(F)(F)F)c2)c1-c1ccccc1` was 11.1%.
